This is one part of the list.
Tests used:
Assay in all cases: glycan array binding signal (z-score within array); higher = stronger binding
Details in all cases: glycan notation: IUPAC condensed, linker removed
[1] = target: Gal(b1-4)GlcNAc(b1-2)Man(a1-6)[Man(a1-3)]Man(b1-4)GlcNAc(b1-4)GlcNAc
How it was run: (§1)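 The binding signal is a Z-score computed within each array and averaged over linkers. Arrays of the same protein sequence at different concentrations or buffers were also averaged together. Data originate from 3228 arrays in the Consortium for Functional Glycomics database, kept only where the protein sequence was available.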

[2] = target: Gal(b1-4)GlcNAc(b1-2)[Gal(b1-4)GlcNAc(b1-4)]Man(a1-3)[Gal(b1-4)GlcNAc(b1-2)Man(a1-6)]Man(b1-4)GlcNAc(b1-4)GlcNAc
How it was run: as §1

[3] = target: Gal(b1-4)GlcNAc(b1-2)[Gal(b1-4)GlcNAc(b1-4)]Man(a1-3)[Gal(b1-4)GlcNAc(b1-2)[Gal(b1-4)GlcNAc(b1-6)]Man(a1-6)]Man(b1-4)GlcNAc(b1-4)GlcNAc
How it was run: as §1

[4] = target: Gal(b1-4)GlcNAc(b1-2)[Gal(b1-4)GlcNAc(b1-4)]Man(a1-3)[GlcNAc(b1-4)][Gal(b1-4)GlcNAc(b1-2)Man(a1-6)]Man(b1-4)GlcNAc(b1-4)GlcNAc
How it was run: as §1

[5] = target: Gal(b1-4)GlcNAc(b1-2)[Gal(b1-4)GlcNAc(b1-4)]Man(a1-3)[GlcNAc(b1-4)][Gal(b1-4)GlcNAc(b1-2)[Gal(b1-4)GlcNAc(b1-6)]Man(a1-6)]Man(b1-4)GlcNAc(b1-4)GlcNAc
How it was run: as §1

[6] = target: Gal(b1-4)GlcNAc(b1-2)[Gal(b1-4)GlcNAc(b1-6)]Man(a1-6)[Gal(b1-4)GlcNAc(b1-2)Man(a1-3)]Man(b1-4)GlcNAc(b1-4)GlcNAc
How it was run: as §1

[7] = target: Gal(b1-4)GlcNAc(b1-2)[Gal(b1-4)GlcNAc(b1-6)]Man(a1-6)[Gal(b1-4)GlcNAc(b1-2)Man(a1-3)]Man(b1-4)GlcNAc(b1-4)[Fuc(a1-6)]GlcNAc
How it was run: as §1

[8] = target: Gal(b1-4)GlcNAc(b1-2)[Gal(b1-4)GlcNAc(b1-6)]Man(a1-6)[GlcNAc(b1-4)][Gal(b1-4)GlcNAc(b1-2)Man(a1-3)]Man(b1-4)GlcNAc(b1-4)GlcNAc
How it was run: as §1

[9] = target: Gal(b1-4)GlcNAc(b1-2)[Gal(b1-4)GlcNAc(b1-6)]Man(a1-6)[GlcNAc(b1-4)][Gal(b1-4)GlcNAc(b1-2)[Gal(b1-4)GlcNAc(b1-4)]Man(a1-3)]Man(b1-4)GlcNAc(b1-4)[Fuc(a1-6)]GlcNAc
How it was run: as §1

[10] = target: Gal(b1-4)GlcNAc(b1-3)Gal(b1-3)GalNAc
How it was run: as §1

[11] = target: Gal(b1-4)GlcNAc(b1-3)Gal(b1-3)GlcNAc
How it was run: as §1

[12] = target: Gal(b1-4)GlcNAc(b1-3)Gal(b1-4)Glc
How it was run: as §1

[13] = target: Gal(b1-4)GlcNAc(b1-3)Gal(b1-4)GlcNAc
How it was run: as §1

[14] = target: Gal(b1-4)GlcNAc(b1-3)Gal(b1-4)GlcNAc(b1-2)Man(a1-3)[Gal(b1-4)GlcNAc(b1-3)Gal(b1-4)GlcNAc(b1-2)Man(a1-6)]Man(b1-4)GlcNAc(b1-4)GlcNAc
How it was run: as §1

[15] = target: Gal(b1-4)GlcNAc(b1-3)Gal(b1-4)GlcNAc(b1-2)Man(a1-3)[Gal(b1-4)GlcNAc(b1-3)Gal(b1-4)GlcNAc(b1-2)Man(a1-6)]Man(b1-4)GlcNAc(b1-4)[Fuc(a1-6)]GlcNAc
How it was run: as §1

[16] = target: Gal(b1-4)GlcNAc(b1-3)Gal(b1-4)GlcNAc(b1-2)[Gal(b1-4)GlcNAc(b1-3)Gal(b1-4)GlcNAc(b1-6)]Man(a1-6)[Gal(b1-4)GlcNAc(b1-3)Gal(b1-4)GlcNAc(b1-2)Man(a1-3)]Man(b1-4)GlcNAc(b1-4)GlcNAc
How it was run: as §1

[17] = target: Gal(b1-4)GlcNAc(b1-3)Gal(b1-4)GlcNAc(b1-2)[Gal(b1-4)GlcNAc(b1-3)Gal(b1-4)GlcNAc(b1-6)]Man(a1-6)[Gal(b1-4)GlcNAc(b1-3)Gal(b1-4)GlcNAc(b1-2)Man(a1-3)]Man(b1-4)GlcNAc(b1-4)[Fuc(a1-6)]GlcNAc
How it was run: as §1

[18] = target: Gal(b1-4)GlcNAc(b1-3)Gal(b1-4)GlcNAc(b1-3)Gal(b1-4)GlcNAc
How it was run: as §1

[19] = target: Gal(b1-4)GlcNAc(b1-3)Gal(b1-4)GlcNAc(b1-3)Gal(b1-4)GlcNAc(b1-2)Man(a1-3)[Gal(b1-4)GlcNAc(b1-3)Gal(b1-4)GlcNAc(b1-3)Gal(b1-4)GlcNAc(b1-2)Man(a1-6)]Man(b1-4)GlcNAc(b1-4)GlcNAc
How it was run: as §1

[20] = target: Gal(b1-4)GlcNAc(b1-3)Gal(b1-4)GlcNAc(b1-3)Gal(b1-4)GlcNAc(b1-2)Man(a1-3)[Gal(b1-4)GlcNAc(b1-3)Gal(b1-4)GlcNAc(b1-3)Gal(b1-4)GlcNAc(b1-2)Man(a1-6)]Man(b1-4)GlcNAc(b1-4)[Fuc(a1-6)]GlcNAc
How it was run: as §1

[21] = target: Gal(b1-4)GlcNAc(b1-3)Gal(b1-4)GlcNAc(b1-3)Gal(b1-4)GlcNAc(b1-2)[Gal(b1-4)GlcNAc(b1-3)Gal(b1-4)GlcNAc(b1-3)Gal(b1-4)GlcNAc(b1-6)]Man(a1-6)[Gal(b1-4)GlcNAc(b1-3)Gal(b1-4)GlcNAc(b1-3)Gal(b1-4)GlcNAc(b1-2)Man(a1-3)]Man(b1-4)GlcNAc(b1-4)[Fuc(a1-6)]GlcNAc
How it was run: as §1

[22] = target: Gal(b1-4)GlcNAc(b1-3)Gal(b1-4)GlcNAc(b1-3)Gal(b1-4)GlcNAc(b1-3)Gal(b1-4)GlcNAc(b1-2)Man(a1-3)[Gal(b1-4)GlcNAc(b1-3)Gal(b1-4)GlcNAc(b1-3)Gal(b1-4)GlcNAc(b1-3)Gal(b1-4)GlcNAc(b1-2)Man(a1-6)]Man(b1-4)GlcNAc(b1-4)GlcNAc
How it was run: as §1

B1: Mermaid3 (Stilbonema majum) (protein)
chain: MGSSHHHHHHSSGLVPRGSHMAASGWLRSPQGTVVKLYRRSLSWSKADEFCKDVDGRLVVDRTADMHLFLIKNVLKEKKSRVWVGLRRTASHSRTWIWSDGTRQNEGDLDANLWLRDEPNDAAGEEECALFMYSPWEKAWGLNDYLCRGGCRNYQFICEKWIR
[1]
  glycan array binding signal (z-score): -0.553
[2]
  glycan array binding signal (z-score): 0.021
[3]
  glycan array binding signal (z-score): -0.626
[4]
  glycan array binding signal (z-score): -0.574
[5]
  glycan array binding signal (z-score): -0.699
[6]
  glycan array binding signal (z-score): -0.312
[7]
  glycan array binding signal (z-score): -0.123
[8]
  glycan array binding signal (z-score): 0.3
[9]
  glycan array binding signal (z-score): -0.562
[10]
  glycan array binding signal (z-score): -0.579
[11]
  glycan array binding signal (z-score): -0.723
[12]
  glycan array binding signal (z-score): 0.34
[13]
  glycan array binding signal (z-score): -0.211
[14]
  glycan array binding signal (z-score): -0.436
[15]
  glycan array binding signal (z-score): -0.061
[16]
  glycan array binding signal (z-score): 3.51
[17]
  glycan array binding signal (z-score): -0.136
[18]
  glycan array binding signal (z-score): -0.799
[19]
  glycan array binding signal (z-score): -0.127
[20]
  glycan array binding signal (z-score): -0.217
[21]
  glycan array binding signal (z-score): 0.233
[22]
  glycan array binding signal (z-score): 0.149
